# Some of the results follow. Single values are uncertain, as repeats are few or missing.
# Key:
# Assay in all cases: cell count relative to DMSO control; melanoma cells; higher = more viable cells
# Conditions in all cases: library dose: standard library concentration; 72 h
# G361 = test system: G361
# IPC-298 = test system: IPC-298
# IST-MEL1 = test system: IST-MEL1
# LB2518-MEL = test system: LB2518-MEL
# LOXIMVI = test system: LOXIMVI
# MEL-HO = test system: MEL-HO
# MZ2-MEL = test system: MZ2-MEL
# MeWo = test system: MeWo
# RPMI7951 = test system: RPMI7951
# RVH-421 = test system: RVH-421
# SkMel28 = test system: SkMel28
# SkMel2 = test system: SkMel2
# SkMel30 = test system: SkMel30
# SkMel5 = test system: SkMel5
# UACC257 = test system: UACC257
# UACC62 = test system: UACC62
# WM115 = test system: WM115
# WM1716 = test system: WM1716
# WM1745 = test system: WM1745
# WM3526 = test system: WM3526
# 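Also: cells treated in 1,536-well plates, then fixed and DAPI-stained, with nuclei counted from automated high-throughput microscope images.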
SMILES,cell count (G361),cell count (IPC-298),cell count (IST-MEL1),cell count (LB2518-MEL),cell count (LOXIMVI),cell count (MEL-HO),cell count (MZ2-MEL),cell count (MeWo),cell count (RPMI7951),cell count (RVH-421),cell count (SkMel28),cell count (SkMel2),cell count (SkMel30),cell count (SkMel5),cell count (UACC257),cell count (UACC62),cell count (WM115),cell count (WM1716),cell count (WM1745),cell count (WM3526)
"N.N.[Cl][Pt][Cl] [cisplatin] + Cc1ccc(NC(=O)c2cccc(N(C)C)c2)cc1NC(=O)c1ccc(O)cc1 [ZM336372] (first compound 8 µM, partner dose 10 µM)",91.9%,96.7%,85.4%,125%,108%,86.8%,107%,110%,75.8%,103%,86.4%,88.4%,92.3%,92.2%,91.5%,107%,86.7%,128%,86.9%,95.5%
"C[C@]12O[C@H](C[C@]1(O)CO)n1c3ccccc3c3c4c(c5c6ccccc6n2c5c31)CNC4=O [Lestaurtinib] + O=C(O)c1ccc(-c2c[nH]c3ncc(-c4ccccc4)cc23)cc1C1CCCC1 [GSK650394] (first compound 0.02 µM, partner dose 0.8 µM)",65.2%,60.5%,69.7%,53.8%,76%,66.8%,88.7%,61.6%,90.3%,67.2%,56.9%,105%,77%,52.6%,79.6%,92.5%,70.6%,94.3%,82.4%,71.4%
"N.N.[Cl][Pt][Cl] [cisplatin] + Nc1nc(F)nc2c1ncn2[C@@H]1O[C@H](CO)[C@@H](O)[C@@H]1O [fludarabine] (first compound 8 µM, partner dose 1 µM)",63.1%,69.3%,67.2%,70.5%,66.3%,61%,97.5%,87.6%,63.7%,75.6%,2.07%,0.913%,10.2%,24.6%,27.7%,54.5%,89.6%,91.6%,106%,15.9%
"Cn1cc(C2=C(c3cn(C4CCN(Cc5ccccn5)CC4)c4ccccc34)C(=O)NC2=O)c2ccccc21 [Enzastaurin] + COc1cc(Nc2ncc(F)c(Nc3ccc4c(n3)NC(=O)C(C)(C)O4)n2)cc(OC)c1OC [Tamatinib] (first compound 4 µM, partner dose 2 µM)",66.3%,73.1%,17.7%,25.3%,39.2%,53.5%,63.4%,75.2%,4.72%,42.3%,70.4%,62.2%,85.3%,54.1%,87.6%,62.4%,66%,32.5%,13.8%,77.4%
"C[C@]12O[C@H](C[C@]1(O)CO)n1c3ccccc3c3c4c(c5c6ccccc6n2c5c31)CNC4=O [Lestaurtinib] + Nc1ccn([C@@H]2O[C@H](CO)[C@@H](O)C2(F)F)c(=O)n1 [gemcitabine] (first compound 0.02 µM, partner dose 0.002 µM)",24.7%,30.1%,27.3%,47.6%,65.2%,43.6%,69.2%,28.5%,44.2%,50.4%,89.4%,96.4%,62.7%,73.7%,92.6%,79.3%,59.8%,46.4%,46.5%,87.2%
"C[C@]12O[C@H](C[C@]1(O)CO)n1c3ccccc3c3c4c(c5c6ccccc6n2c5c31)CNC4=O [Lestaurtinib] + COc1ccc(Cl)c(Nc2nc3ccccc3nc2NS(=O)(=O)c2cccc(NC(=O)C(C)(C)N)c2)c1 [XL147] (first compound 0.02 µM, partner dose 4 µM)",77.9%,68.7%,76.8%,67.6%,144%,72.2%,110%,82.7%,91.7%,81.3%,78.4%,125%,94.3%,52.5%,83.1%,78.3%,76.9%,86.5%,82.8%,81.5%
"Cn1cc(C2=C(c3cn(C4CCN(Cc5ccccn5)CC4)c4ccccc34)C(=O)NC2=O)c2ccccc21 [Enzastaurin] + OCc1c[nH]c2ccccc12 [Indole-3-carbinol] (first compound 4 µM, partner dose 4 µM)",102%,119%,100%,121%,87.4%,122%,129%,115%,107%,84.5%,99.3%,139%,103%,91.6%,105%,94.4%,114%,82.2%,96.2%,112%
"C[C@]12O[C@H](C[C@]1(O)CO)n1c3ccccc3c3c4c(c5c6ccccc6n2c5c31)CNC4=O [Lestaurtinib] + CNC(=O)c1cc(Oc2ccc(NC(=O)Nc3ccc(Cl)c(C(F)(F)F)c3)cc2)ccn1 [sorafenib] (first compound 0.02 µM, partner dose 2 µM)",80.1%,72.1%,106%,70.7%,103%,81.8%,81.9%,85.5%,75.1%,62.7%,118%,79.5%,66.8%,69.6%,80.5%,75.9%,97.8%,115%,58.3%,69.8%
"C[C@]12O[C@H](C[C@]1(O)CO)n1c3ccccc3c3c4c(c5c6ccccc6n2c5c31)CNC4=O [Lestaurtinib] + C=CCNC1=C2C[C@@H](C)C[C@H](OC)[C@H](O)[C@@H](C)/C=C(\C)[C@H](OC(N)=O)[C@@H](OC)/C=C\C=C(/C)C(=O)NC(=CC1=O)C2=O [Tanespimycin] (first compound 0.02 µM, partner dose 0.01 µM)",52.2%,55.7%,67%,30.9%,159%,64%,74.2%,45.3%,21.6%,75.5%,51.2%,82.2%,66.9%,39.5%,87.4%,64.9%,24.9%,94.6%,58.9%,64.9%
"Cn1cc(C2=C(c3cn(C4CCN(Cc5ccccn5)CC4)c4ccccc34)C(=O)NC2=O)c2ccccc21 [Enzastaurin] + c1cc(-c2cnn3cc(-c4ccc(OCCN5CCCCC5)cc4)cnc23)ccn1 [Dorsomorphin] (first compound 4 µM, partner dose 2 µM)",59.7%,97%,70.7%,26.3%,117%,86.1%,85.8%,74.3%,35.2%,69.8%,69.4%,52.4%,88.8%,50.7%,81.5%,50.7%,90.8%,66.5%,,77.6%
"C[C@]12O[C@H](C[C@]1(O)CO)n1c3ccccc3c3c4c(c5c6ccccc6n2c5c31)CNC4=O [Lestaurtinib] + O=C(O)[C@@H]1[O][Sb](=[O])([O][Sb]2(=[O])[O][C@H]([C@H](O)CO)[C@H](O)[C@H](C(=O)O)[O]2)[O][C@H]([C@H](O)CO)[C@@H]1O [stibogluconate] (first compound 0.02 µM, partner dose 10 µM)",79.1%,68.6%,95.7%,70.7%,84.5%,76.8%,98.8%,77.3%,133%,94.6%,56.1%,106%,74%,65%,93.1%,69%,69.1%,106%,96.2%,77.8%
"N.N.[Cl][Pt][Cl] [cisplatin] + CC(C)CCN1c2nc(Nc3cc(F)c(O)c(F)c3)ncc2N(C)C(=O)C1C [BID1870] (first compound 8 µM, partner dose 1 µM)",66.9%,75.5%,82.2%,102%,254%,67.7%,98.9%,77.3%,74.5%,64.3%,83.7%,89.7%,93.3%,110%,71.1%,75.9%,90.7%,80.8%,,71.1%
"N.N.[Cl][Pt][Cl] [cisplatin] + COC(=O)c1sccc1S(=O)(=O)Nc1ccc(Nc2ccccc2)cc1OC [GSK0660] (first compound 8 µM, partner dose 5 µM)",95%,90.5%,89.8%,101%,125%,83.2%,84.2%,130%,124%,93%,89.9%,95.9%,121%,144%,82%,86.7%,91.2%,102%,,90.7%
"N.N.[Cl][Pt][Cl] [cisplatin] + COc1ccc2c(c1)CCC1C2CCC2(C)C(NCCCCCCN3C(=O)C=CC3=O)CCC12 [U73122] (first compound 8 µM, partner dose 2 µM)",46.8%,79.6%,74.9%,72%,32.4%,78.8%,82%,42.6%,6.07%,89.8%,50.3%,77.5%,75.7%,56.5%,83%,51.6%,70.6%,73.4%,,72.1%
"Cn1cc(C2=C(c3cn(C4CCN(Cc5ccccn5)CC4)c4ccccc34)C(=O)NC2=O)c2ccccc21 [Enzastaurin] + O=C(Oc1ccc([N+](=O)[O-])cc1)N1CCC(C(O)(c2ccc3c(c2)OCO3)c2ccc3c(c2)OCO3)CC1 [JZL184] (first compound 4 µM, partner dose 5 µM)",61.9%,98.9%,77.8%,58%,94.1%,86.5%,81.4%,85%,44.3%,37%,69.3%,55.4%,82%,92.5%,85.9%,39.2%,113%,65.5%,,90.8%
"N.N.[Cl][Pt][Cl] [cisplatin] + Oc1cc(-c2nc(-c3ccccc3)[nH]c2-c2ccncc2)ccc1Cl [L779450] (first compound 8 µM, partner dose 1 µM)",61.4%,106%,81.3%,92.3%,99.9%,74.3%,98.7%,81.1%,78.1%,68.6%,41.8%,31.4%,81.6%,67%,88.9%,49.1%,57.5%,78.6%,,44.4%
"N.N.[Cl][Pt][Cl] [cisplatin] + COc1ccc(-c2ccc3c(N4CCOCC4)nc(N4C[C@@H](C)O[C@@H](C)C4)nc3n2)cc1CO [KU0063794] (first compound 8 µM, partner dose 0.1 µM)",78.7%,69.9%,73.5%,68.2%,73.6%,71.9%,84.7%,60.7%,77.3%,72.6%,69.9%,74.7%,84.1%,66%,80.6%,68.3%,74.9%,80.3%,,73.5%
